109 molecules from PubChem BioAssay AID488969 (Vanderbilt High Throughput Screening Facility, 2010) can be followed below.

In all, about 110,000 compounds were measured (“z-score”: median about -0.1, highest 2% from about 2 on). This is one part of the list. The source made the active and inactive calls.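 The calls were made as follows: active = z-score in the third read window above 3 or below -3; inactive = the rest.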

This test concerns the target Metabotropic glutamate receptor 8 (Rattus norvegicus) (UniProt P70579). Description: mGluR8 Gi/Go-coupled signaling modulation – cell-based, rat, thallium flux, HTS, primary screen (AID 488969). The conditions noted are these: HEK293 rat mGluR8, GIRK (G protein-gated inwardly rectifying potassium channel) thallium flux, FluoZin2; at 10 µM; stronger effect = higher value; submaximal glutamate (EC20) added with thallium.
Sequence of UniProt P70579 (P70579 whole entry, looked up): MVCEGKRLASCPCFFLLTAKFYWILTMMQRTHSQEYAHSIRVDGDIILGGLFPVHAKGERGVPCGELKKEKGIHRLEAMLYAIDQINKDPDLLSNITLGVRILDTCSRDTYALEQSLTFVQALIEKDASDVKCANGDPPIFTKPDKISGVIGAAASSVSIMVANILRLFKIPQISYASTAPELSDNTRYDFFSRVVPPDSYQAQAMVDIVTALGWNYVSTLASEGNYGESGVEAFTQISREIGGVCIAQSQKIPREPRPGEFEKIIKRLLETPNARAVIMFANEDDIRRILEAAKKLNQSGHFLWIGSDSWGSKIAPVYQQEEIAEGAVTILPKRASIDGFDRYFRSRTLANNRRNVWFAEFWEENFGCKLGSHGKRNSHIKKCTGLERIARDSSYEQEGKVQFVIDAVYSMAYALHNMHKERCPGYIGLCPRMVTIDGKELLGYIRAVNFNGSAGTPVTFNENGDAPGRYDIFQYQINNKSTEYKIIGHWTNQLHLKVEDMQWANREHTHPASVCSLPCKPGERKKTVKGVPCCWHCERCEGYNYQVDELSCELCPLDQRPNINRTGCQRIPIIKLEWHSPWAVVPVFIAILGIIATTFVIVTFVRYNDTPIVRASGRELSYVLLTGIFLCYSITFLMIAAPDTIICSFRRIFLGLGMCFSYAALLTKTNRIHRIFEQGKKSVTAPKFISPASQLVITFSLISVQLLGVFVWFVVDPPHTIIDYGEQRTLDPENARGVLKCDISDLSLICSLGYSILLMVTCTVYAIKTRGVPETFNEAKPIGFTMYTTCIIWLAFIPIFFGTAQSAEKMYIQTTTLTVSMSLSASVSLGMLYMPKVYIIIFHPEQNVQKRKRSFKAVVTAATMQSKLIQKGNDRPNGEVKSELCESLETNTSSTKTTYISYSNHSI
As to `CCN(CC)c1ccc(/C=C2\C(=O)N(c3ccc([N+](=O)[O-])cc3)N=C2N2CCOCC2)cc1`, the z-score was -0.155.
As to `CC1CCCN(c2nc3c(c(=O)[nH]c(=O)n3C)n2CCSc2nc3ccccc3o2)C1` (centres undefined), the z-score was -0.549.
As for `ClC(=C\c1ccccc1)/C=N/N1CCN(c2ccccn2)CC1`, the z-score was -0.0893.
Take `O=c1c2[nH]c3ccccc3c2ncn1Cc1ccco1`: the z-score is -0.0473.
In the case of `Nc1c(S(=O)(=O)c2cccc(Cl)c2)c2nc3ccccc3nc2n1/N=C/c1ccc(O)c(O)c1`, the z-score amounted to 0.831.
On to `COc1cc2c(C(=O)N3CCN(c4ccccc4C)CC3)c(C)oc2cc1Br`, for which the z-score was -0.461.
With `COC(=O)c1cc(NS(=O)(=O)c2ccc(N3CCC(C)CC3)c([N+](=O)[O-])c2)cc(C(=O)OC)c1`, the z-score is -0.235.
`O=C(Nc1cccn(Cc2c(Cl)cccc2Cl)c1=O)c1ccc(Cl)cc1`: the z-score is 0.349.
With `CCn1c(=O)cc(OCC(=O)N2CCCCCC2)c2ccccc21`, the z-score was -0.224.
Take `Cc1ccccc1C(=O)N1CCC(C(=O)Nc2ccc(S(=O)(=O)N(C)C(C)C)cc2)CC1`: the z-score was -0.824.
Molecule `Cc1cc(C(F)(F)F)nn1CC(=O)NNC(=S)Nc1ccc(Cl)cc1` gave a z-score of 0.0912.
For `CCOC(=O)C(NCCc1ccc(F)cc1)(NC(=O)CC)C(F)(F)F` (centres undefined), the z-score was -0.413.
Turning to `CC12CCC(O)CC1=CCC1C2CCC2(C)C1CCC21CCC(=O)O1` (centres undefined), the z-score is 0.184.
Turning to `COc1cc(NC(=O)CCC(=O)O)nc(OC)n1`, the z-score was -0.0824.
`Cc1ccc2c(c1)NC(=O)C(CC(=O)N(C)Cc1ccccc1)O2` (centres undefined): the z-score was -0.422.
Regarding `Oc1ccc(Br)cc1-c1nc2cnccn2c1NC1CCCCC1`, the z-score is -0.22.
As for `O=C(Cc1ccccc1)N/N=C/c1ccc(-c2ccc([N+](=O)[O-])cc2)o1`, the z-score is -0.441.
Regarding `N#C/C(=C/c1cccc([N+](=O)[O-])c1)c1nnc2n1CCCCC2`, the z-score is -0.295.
On to `COc1ccc(NC(=O)c2ccc(C#CC(C)(C)O)cc2)cc1`, for which the z-score is -0.245.
`O=[N+]([O-])C1=CC=C2C(=NC3(CCCCC3)N2O)C1=NC1CCCCC1` registered a z-score of 0.018.
In the case of `COc1cccc(NC(=O)N(CCCN2CCOCC2)C(C)c2cc3ccccc3o2)c1` (centres undefined), the z-score is -2.21.
The molecule `CCOC(=O)C1=C(c2ccccc2)OC(N)=C(C#N)C1c1cccs1` (centres undefined) displayed a z-score of 0.288.
`COc1ccc(C(=O)Nc2cc3c(cc2C#N)OCO3)cc1S(=O)(=O)N1CCN(C)CC1`: the z-score was found to be 1.02.
With `COc1ccc(Cc2nc3ccccc3n2CC(=O)N/N=C/c2ccc(C)cc2O)cc1OC`, the z-score was -0.275.
Consider `CCCS(=O)(=O)N1CCC(C(=O)NC2CCCC(C)C2C)CC1` (centres undefined), for which the z-score is 0.495.
On to `CCn1c(SCc2nc3ccccc3[nH]2)nnc1-c1ccc(OC)cc1`, for which the z-score was -0.231.
The molecule `COc1ccccc1C(c1nnnn1CCc1ccccc1)N1CCCCCC1` (centres undefined) had a z-score of 2.68.
In the case of `Cc1nn(C)c(C)c1CNC(=O)c1nn2c(c1Cl)NC(c1cccs1)CC2C(F)(F)F` (centres undefined), the z-score is -0.0188.
Take `CCCC(=O)Nc1sc2c(c1C#N)CCCCC2`: the z-score is 0.209.
For the molecule `CCCCNC(=O)C1C2C=CC3(CN(Cc4ccccc4Cl)C(=O)C13)O2` (centres undefined), the z-score came to 1.61.
As to `COc1ccc(S(=O)(=O)Nc2ccc(S(=O)(=O)N3CCOCC3)cc2)cc1C`, the z-score is -0.769.
With `Cc1c(S(=O)(=O)N2CCc3ccccc3C2)c(=O)n(C)c(=O)n1C`, the z-score was -0.104.
Consider `CCN(CC)CCn1nc(C)nc1-c1ccccc1O`, for which the z-score was -0.149.
As for `COc1ccc(C(=O)c2c(C)c3cc(C)ccc3n2CC(O)CN2CCOCC2)cc1` (centres undefined), the z-score was -0.197.
In the case of `O=C(c1ccco1)N1CCN(C(=O)c2nn3cccnc3c2Cl)CC1`, the z-score is -0.0636.
Turning to `Cc1ccnc2nc(C(=O)NCCc3ccc(F)cc3)nn12`, the z-score is 0.504.
Consider `COc1cc(C(=O)Oc2cccc(Nc3ncnc4ccccc34)c2)cc(OC)c1OC`, for which the z-score is -1.17.
With `O=C(c1ccc(CNS(=O)(=O)c2ccccc2)cc1)N1CCN(c2ccccn2)CC1`, the z-score is -0.194.
`CC(=O)c1ccc2c3c(ccc(O)c13)CC2`: the z-score was 0.635.
`N#Cc1c(N)n(C2CCCCC2)c2nc3ccccc3nc12`: the z-score was -0.276.
As to `COc1cccc(OCc2nnc(SCC(=O)NCc3ccco3)n2C)c1`, the z-score stood at 1.17.
In the case of `CC(C)Cn1c(N)c(C(=O)NCCN2CCOCC2)c2nc3ccccc3nc21`, the z-score was -0.402.
For `COCCNC(=O)c1onc(CSc2cccc(OC)c2)c1C(=O)O`, the z-score was -0.0826.
For the molecule `CCOC(=O)c1c(NC(=O)CSc2nnc(-c3cccnc3)o2)sc2c1CCC2`, the z-score is -1.11.
Regarding `O=c1ccc(Cl)cn1Cc1ccccc1F`, the z-score is -0.462.
With `Cc1cc2cc(C(c3nnnn3Cc3ccccc3)N3CCc4ccccc43)c(=O)[nH]c2cc1C` (centres undefined) the figure was -0.423; with `COc1ccc(CNC(=O)c2cc(-n3cnnc3)ccc2Cl)cc1`, 0.0981; with `O=C1C2C3C=CC(C3)C2C(=O)N1c1n[nH]c(-c2ccccc2)n1` (centres undefined), -0.411.
To `COC(=O)CCC(=O)NC(=S)Nc1cc(Cl)ccc1Cl` belongs 0.575; to `Cc1c(/C(O)=C2/C(=O)C(=O)N(CCN3CCOCC3)C2c2cccs2)cnn1-c1ccccc1` (centres undefined), 0.079.
On to `CCN1C(=O)C2(SC(NC(C)=O)=NN2C(C)=O)c2cc(C)cc(C)c21` (centres undefined), for which the z-score is -0.0694.
`NC1=NC2(CCCCCC2)n2c(nc3ccccc32)N1` registered a z-score of 0.257.
With `CCOc1cc2[nH]c(=O)n(CCC(=O)NCCc3ccccc3)c(=O)c2cc1OCC` the figure was -0.0517.
As to `Cc1cccc(C(C)(C)C)c1OCCn1ccnc1`, the z-score was determined as 0.642.
As to `Clc1ccc(N2N=C(c3cccs3)CC2c2ccco2)cc1` (centres undefined), the z-score is -0.162.
`CCCC(=O)N1CCN(c2nc(CC(C)C)c3c(c2C#N)CCC3)CC1`: the z-score was -0.0696.
`CCOc1ccc2nc(NC3=NC(C)(C)C=C(C)N3)nc(C)c2c1` registered a z-score of 0.871.
With `CCCc1cc(C(F)(F)F)c(C#N)c(=O)[nH]1` the figure was -0.596; with `CCn1c(SCC(=O)OC2CCCCC2)nnc1-c1ccncc1`, 0.625; with `Cc1ccc(-c2csc(Cc3nc(-c4cc5ccccc5oc4=O)cs3)n2)cc1`, -0.175.
With `COC(=O)C1CCN(C(=O)COc2ccc(Cl)cc2)CC1`, the z-score was -0.634.
For `CCOC(=O)c1c(-c2ccc(OC)cc2)csc1NC(=O)CSc1ccccc1`, the z-score is -0.082.
With `CSc1ncc(Cl)c(C(=O)Nc2nnc(SC/C=C/c3ccccc3)s2)n1` the figure was -0.288.
As for `CCOCC(=O)Nc1nc2ccc(C)cc2s1`, the z-score was -0.0136.
As for `O=C(Cn1c(=O)c2c(ncn2Cc2ccccc2)n(Cc2ccccc2)c1=O)N1CCc2ccccc21`, the z-score was -0.308.
As to `Cn1cnc2nc3n(c2c1=O)CCC3`, the z-score was 0.445.
With `CCOC(=O)c1c(C)nc2sc3c(c2c1-c1ccc(OC)cc1)NC(c1ccccc1)NC3=O` (centres undefined), the z-score was -0.0309.
With `COC(=O)CSc1ccc(C#N)c(SCC(=O)OC)c1` the figure was -0.826; with `CCc1ccc(OCC(=O)NC(=S)Nc2ccc(C)cc2C)c(Br)c1`, 0.275; with `CC(C)Cn1c(=O)c2ccccc2c2ccccc2c1=O`, -0.513.
To `Cc1nn(Cc2ccccc2)c(C)c1/C=N/NC(=O)CNc1cccc(C(F)(F)F)c1` belongs -0.116; to `O=C(Nc1ccc2c(c1)OCCO2)c1c(F)cccc1F`, -0.197.
In the case of `CCOC(=O)N1CCC(NC(=O)C2CCC(CNS(=O)(=O)c3ccc(OC)cc3)CC2)CC1` (centres undefined), the z-score was -0.392.
For the molecule `COc1cccc(Nc2nc(CC(C)=O)ns2)c1`, the z-score is -0.486.
For `Cc1no[n+]([O-])c1COc1ccc(/C=C(\C#N)C(N)=O)cc1`, the z-score is -0.17.
With `Cc1ccc2sc(-c3ccc(NC(=O)c4cc(-n5cnnc5)ccc4Cl)cc3)nc2c1` the figure was -0.0244.
Regarding `COc1ccc(NC(=O)c2cccnc2SC)cc1S(=O)(=O)N1CCCCC1`, the z-score was -0.467.
With `COc1ccc(-c2nnn(Cc3ccccc3F)n2)cc1`, the z-score is -0.392.
The molecule `CN1c2ccccc2N(C)C1c1c(O)ccc2ccccc12` came in with a z-score of 0.11.
`CCn1c(SCC(=O)Nc2cccc(C(C)=O)c2)nnc1C(C)C` showed a z-score of 2.28.
With `O=C(NC1CCCCCC1)C1CCCN(S(=O)(=O)c2cnc[nH]2)C1` (centres undefined), the z-score is 1.59.
With `CC(C)COC(=O)N1CCCC1C(=O)O` (centres undefined) the figure was -0.316; with `Cc1ccc(CNC(=O)C2CC(c3cccc([N+](=O)[O-])c3)=NO2)cc1` (centres undefined), -0.148; with `CCc1nc2sc3c(=O)n(N)cnc3c2c2c1COC(C)(C)C2`, 0.789.
Consider `CCc1nnc2sc(-c3cc(-c4ccccc4)nc4ccccc34)nn12`, for which the z-score is -0.507.
For `O=C(c1ccc(S(=O)(=O)c2ccc(F)cc2)c([N+](=O)[O-])c1)N1CCCCCC1`, the z-score was -0.867.
To `O=C1COc2ccc3ccccc3c2CN1` belongs -0.14; to `Cc1cccc(C#N)c1NC1=CC(=O)CC(C)(C)C1`, 0.00644; to `Cn1c(=O)c2c(nc(SCCN3CCCCC3)n2Cc2ccccc2)n(C)c1=O`, 0.263.
To `c1ccc2c(c1)OCC(c1nnc3n1-c1ccccc1SC3)O2` (centres undefined) belongs -0.661; to `COCCn1c(=O)[nH]c2cc(C(=O)N3CCN(c4ccccc4OC)CC3)ccc2c1=O`, -0.793.
With `CCC(C)(C(=O)NC1CCCC1)N(CC1CCCO1)C(=O)c1ccc2c(c1)OCO2` (centres undefined), the z-score was 0.273.
With `CC(C)Cn1cnc2sc3c(c2c1=N)CCCC3` the figure was active: 3.07.
On to `CN1CCS/C1=C/C=C1/SC(=S)N(Cc2ccccc2)C1=O`, for which the z-score was -0.218.
In the case of `CC(C)CCNC(=O)c1cccc(Cl)c1`, the z-score was -0.123.
For the molecule `O=C(CNS(=O)(=O)c1ccc(F)c(Cl)c1)N1CCCCCC1`, the z-score worked out at 0.147.
With `COCCn1c(SCC(=O)NNC(=O)c2ccccc2)nc2ccccc2c1=O` the figure was -0.311.
For the molecule `O=S(=O)(Nc1ccccc1N1CCCCC1)c1ccc(Cl)s1`, the z-score is active: 3.45.
With `COc1cc(-c2nn3c(Cc4ccccc4)nnc3s2)cc(OC)c1OC` the figure was 0.105; with `Cc1nnc(NC(=O)c2c(-c3ccccc3)noc2C)s1`, -0.27; with `Cc1ccc(C(=O)Nc2cnc3ccccn3c2=O)cc1`, active: 4.27.
With `Cc1cc(/C=N/NC(=O)c2cccc([N+](=O)[O-])c2)c(C)n1-c1ccc(Cl)cc1Cl`, the z-score was -0.073.
`O=C(CNC(=S)NC(=O)C1CCCCC1)c1ccccc1`: the z-score was -0.309.
On to `COc1ccc(-c2nc(CS(=O)CC(=O)NCc3ccco3)c(C)o2)cc1OC` (centres undefined), for which the z-score is -0.186.
`Cn1cc(SCC(N)=O)c2ccccc21` returned a z-score of 0.346.
To `Cc1cccc(C)c1NC(=O)CSc1nnc(-c2ccco2)n1N` belongs 0.0425; to `CCOC(=O)Cn1nnc(-c2ccc(S(C)(=O)=O)cc2)n1`, -0.322; to `CCOc1ccc(NC(=O)CSc2nc3ccccc3c(=O)n2Cc2cccs2)cc1`, -0.0117.
`O=C(NCCCN1CCOCC1)C(Sc1ccccc1)c1ccccc1` (centres undefined): the z-score was -0.146.
